# Results as given in the supplement of paper PMC8728848.
# The list shows a part of the results.
# B1: Fm1D (Escherichia coli) (protein)
# chain: FSCNVDGGSSIGAGTTSVYVNLDPVIQPGQNLVVDLSQHISCWNDYGGWYDTDHINLVQGSAFAGSLQSYKGSLYWNNVTYPFPLTTNTNVLDIGDKTPMPLPLKLYITPVGAAGGVVIKAGEVIARIHMYKIATLGSGNPRNFTWNIISNNSVVMPTHHHHHH
# Tests used:
# Assay in all cases: glycan array binding signal (z-score within array); higher = stronger binding
# Settings in all cases: glycan notation: IUPAC condensed, linker removed
# [1] = biological target: GlcNAc(b1-2)Man(a1-3)[GlcNAc(b1-2)Man(a1-6)]Man(b1-4)GlcNAc(b1-4)GlcNAc
# Outline: (§1)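 From the Consortium for Functional Glycomics database, 3228 arrays were curated, keeping only those whose protein sequence was available. Binding is given as a within-array Z-score averaged across arrays sharing a protein sequence and across linkers. Negative Z-scores can be read as non-binding.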
# [2] = biological target: GlcNAc(b1-2)Man(a1-3)[GlcNAc(b1-2)Man(a1-6)]Man(b1-4)GlcNAc(b1-4)[Fuc(a1-6)]GlcNAc
# Outline: as §1
# [3] = biological target: GlcNAc(b1-2)Man(a1-3)[GlcNAc(b1-4)][GlcNAc(b1-2)Man(a1-6)]Man(b1-4)GlcNAc(b1-4)GlcNAc
# Outline: as §1
# [4] = biological target: GlcNAc(b1-2)Man(a1-3)[GlcNAc(b1-4)][GlcNAc(b1-2)Man(a1-6)]Man(b1-4)GlcNAc(b1-4)[Fuc(a1-6)]GlcNAc
# Outline: as §1
# [5] = biological target: GlcNAc(b1-2)[GlcNAc(b1-4)]Man(a1-3)[GlcNAc(b1-2)Man(a1-6)]Man(b1-4)GlcNAc(b1-4)GlcNAc
# Outline: as §1
# [6] = biological target: GlcNAc(b1-2)[GlcNAc(b1-4)]Man(a1-3)[GlcNAc(b1-4)][GlcNAc(b1-2)Man(a1-6)]Man(b1-4)GlcNAc(b1-4)GlcNAc
# Outline: as §1
# [7] = biological target: GlcNAc(b1-2)[GlcNAc(b1-4)]Man(a1-3)[GlcNAc(b1-4)][GlcNAc(b1-2)[GlcNAc(b1-6)]Man(a1-6)]Man(b1-4)GlcNAc(b1-4)GlcNAc
# Outline: as §1
# [8] = biological target: GlcNAc(b1-2)[GlcNAc(b1-4)]Man(a1-3)[GlcNAc(b1-4)][GlcNAc(b1-2)[GlcNAc(b1-6)]Man(a1-6)]Man(b1-4)GlcNAc(b1-4)[Fuc(a1-6)]GlcNAc
# Outline: as §1
# [9] = biological target: GlcNAc(b1-2)[GlcNAc(b1-6)]Man(a1-6)[GlcNAc(b1-2)Man(a1-3)]Man(b1-4)GlcNAc(b1-4)GlcNAc
# Outline: as §1
# [10] = biological target: GlcNAc(b1-2)[GlcNAc(b1-6)]Man(a1-6)[GlcNAc(b1-2)Man(a1-3)]Man(b1-4)GlcNAc(b1-4)[Fuc(a1-6)]GlcNAc
# Outline: as §1
# [11] = biological target: GlcNAc(b1-2)[GlcNAc(b1-6)]Man(a1-6)[GlcNAc(b1-4)][GlcNAc(b1-2)Man(a1-3)]Man(b1-4)GlcNAc(b1-4)GlcNAc
# Outline: as §1
# GlcNAc(b1-3)Fuc = biological target: GlcNAc(b1-3)Fuc
# Outline: as §1
# GlcNAc(b1-3)Gal = biological target: GlcNAc(b1-3)Gal
# Outline: as §1
# [12] = biological target: GlcNAc(b1-3)Gal(b1-3)GalNAc
# Outline: as §1
# GlcNAc(b1-3)Gal(b1-4)Glc = biological target: GlcNAc(b1-3)Gal(b1-4)Glc
# Outline: as §1
# [13] = biological target: GlcNAc(b1-3)Gal(b1-4)GlcNAc
# Outline: as §1
# [14] = biological target: GlcNAc(b1-3)Gal(b1-4)GlcNAc(b1-2)Man(a1-3)[GlcNAc(b1-3)Gal(b1-4)GlcNAc(b1-2)Man(a1-6)]Man(b1-4)GlcNAc(b1-4)GlcNAc
# Outline: as §1
# [15] = biological target: GlcNAc(b1-3)Gal(b1-4)GlcNAc(b1-2)Man(a1-3)[GlcNAc(b1-3)Gal(b1-4)GlcNAc(b1-2)Man(a1-6)]Man(b1-4)GlcNAc(b1-4)[Fuc(a1-6)]GlcNAc
# Outline: as §1
# [16] = biological target: GlcNAc(b1-3)Gal(b1-4)GlcNAc(b1-2)[GlcNAc(b1-3)Gal(b1-4)GlcNAc(b1-6)]Man(a1-6)[GlcNAc(b1-3)Gal(b1-4)GlcNAc(b1-2)Man(a1-3)]Man(b1-4)GlcNAc(b1-4)GlcNAc
# Outline: as §1
# [17] = biological target: GlcNAc(b1-3)Gal(b1-4)GlcNAc(b1-3)Gal(b1-4)GlcNAc
# Outline: as §1
# [18] = biological target: GlcNAc(b1-3)Gal(b1-4)GlcNAc(b1-3)Gal(b1-4)GlcNAc(b1-2)Man(a1-3)[GlcNAc(b1-3)Gal(b1-4)GlcNAc(b1-3)Gal(b1-4)GlcNAc(b1-2)Man(a1-6)]Man(b1-4)GlcNAc(b1-4)GlcNAc
# Outline: as §1
# [19] = biological target: GlcNAc(b1-3)Gal(b1-4)GlcNAc(b1-3)Gal(b1-4)GlcNAc(b1-2)Man(a1-3)[GlcNAc(b1-3)Gal(b1-4)GlcNAc(b1-3)Gal(b1-4)GlcNAc(b1-2)Man(a1-6)]Man(b1-4)GlcNAc(b1-4)[Fuc(a1-6)]GlcNAc
# Outline: as §1
# [20] = biological target: GlcNAc(b1-3)Gal(b1-4)GlcNAc(b1-3)Gal(b1-4)GlcNAc(b1-2)[GlcNAc(b1-3)Gal(b1-4)GlcNAc(b1-3)Gal(b1-4)GlcNAc(b1-6)]Man(a1-6)[GlcNAc(b1-3)Gal(b1-4)GlcNAc(b1-3)Gal(b1-4)GlcNAc(b1-2)Man(a1-3)]Man(b1-4)GlcNAc(b1-4)[Fuc(a1-6)]GlcNAc
# Outline: as §1
# [21] = biological target: GlcNAc(b1-3)Gal(b1-4)GlcNAc(b1-3)Gal(b1-4)GlcNAc(b1-3)Gal(b1-4)GlcNAc(b1-2)Man(a1-3)[GlcNAc(b1-3)Gal(b1-4)GlcNAc(b1-3)Gal(b1-4)GlcNAc(b1-3)Gal(b1-4)GlcNAc(b1-2)Man(a1-6)]Man(b1-4)GlcNAc(b1-4)GlcNAc
# Outline: as §1
# [22] = biological target: GlcNAc(b1-3)Gal(b1-4)GlcNAc(b1-3)Gal(b1-4)GlcNAc(b1-3)Gal(b1-4)GlcNAc(b1-2)Man(a1-3)[GlcNAc(b1-3)Gal(b1-4)GlcNAc(b1-3)Gal(b1-4)GlcNAc(b1-3)Gal(b1-4)GlcNAc(b1-2)Man(a1-6)]Man(b1-4)GlcNAc(b1-4)[Fuc(a1-6)]GlcNAc
# Outline: as §1
# [23] = biological target: GlcNAc(b1-3)Gal(b1-4)GlcNAc(b1-3)Gal(b1-4)GlcNAc(b1-3)Gal(b1-4)GlcNAc(b1-2)[GlcNAc(b1-3)Gal(b1-4)GlcNAc(b1-3)Gal(b1-4)GlcNAc(b1-3)Gal(b1-4)GlcNAc(b1-6)]Man(a1-6)[GlcNAc(b1-3)Gal(b1-4)GlcNAc(b1-3)Gal(b1-4)GlcNAc(b1-3)Gal(b1-4)GlcNAc(b1-2)Man(a1-3)]Man(b1-4)GlcNAc(b1-4)[Fuc(a1-6)]GlcNAc
# Outline: as §1
# [24] = biological target: GlcNAc(b1-3)Gal(b1-4)GlcNAc(b1-3)Gal(b1-4)GlcNAc(b1-3)Gal(b1-4)GlcNAc(b1-3)Gal(b1-4)GlcNAc(b1-2)Man(a1-3)[GlcNAc(b1-3)Gal(b1-4)GlcNAc(b1-3)Gal(b1-4)GlcNAc(b1-3)Gal(b1-4)GlcNAc(b1-3)Gal(b1-4)GlcNAc(b1-2)Man(a1-6)]Man(b1-4)GlcNAc(b1-4)GlcNAc
# Outline: as §1
# [25] = biological target: GlcNAc(b1-3)Gal(b1-4)GlcNAc(b1-3)Gal(b1-4)GlcNAc(b1-3)Gal(b1-4)GlcNAc(b1-3)Gal(b1-4)GlcNAc(b1-2)Man(a1-3)[GlcNAc(b1-3)Gal(b1-4)GlcNAc(b1-3)Gal(b1-4)GlcNAc(b1-3)Gal(b1-4)GlcNAc(b1-3)Gal(b1-4)GlcNAc(b1-2)Man(a1-6)]Man(b1-4)GlcNAc(b1-4)[Fuc(a1-6)]GlcNAc
# Outline: as §1
# [26] = biological target: GlcNAc(b1-3)Gal(b1-4)GlcNAc(b1-3)Gal(b1-4)GlcNAc(b1-3)Gal(b1-4)GlcNAc(b1-3)Gal(b1-4)GlcNAc(b1-2)[GlcNAc(b1-3)Gal(b1-4)GlcNAc(b1-3)Gal(b1-4)GlcNAc(b1-3)Gal(b1-4)GlcNAc(b1-3)Gal(b1-4)GlcNAc(b1-6)]Man(a1-6)[GlcNAc(b1-3)Gal(b1-4)GlcNAc(b1-3)Gal(b1-4)GlcNAc(b1-3)Gal(b1-4)GlcNAc(b1-3)Gal(b1-4)GlcNAc(b1-2)Man(a1-3)]Man(b1-4)GlcNAc(b1-4)[Fuc(a1-6)]GlcNAc
# Outline: as §1
# [27] = biological target: GlcNAc(b1-3)Gal(b1-4)GlcNAc(b1-3)Gal(b1-4)GlcNAc(b1-3)GalNAc
# Outline: as §1
# [28] = biological target: GlcNAc(b1-3)Gal(b1-4)GlcNAc(b1-3)GalNAc
# Outline: as §1
# [29] = biological target: GlcNAc(b1-3)Gal(b1-4)GlcNAc(b1-3)[GlcNAc(b1-3)Gal(b1-4)GlcNAc(b1-3)]GalNAc
# Outline: as §1
# [30] = biological target: GlcNAc(b1-3)Gal(b1-4)GlcNAc(b1-6)[Gal(b1-3)]GalNAc
# Outline: as §1
# [31] = biological target: GlcNAc(b1-3)Gal(b1-4)GlcNAc(b1-6)[GlcNAc(b1-3)Gal(b1-3)]GalNAc
# Outline: as §1
# [32] = biological target: GlcNAc(b1-3)Gal(b1-4)GlcNAc(b1-6)[GlcNAc(b1-3)]Gal(b1-4)GlcNAc
# Outline: as §1
# GlcNAc(b1-3)GalNAc = biological target: GlcNAc(b1-3)GalNAc
# Outline: as §1
# GlcNAc(b1-3)Man = biological target: GlcNAc(b1-3)Man
# Outline: as §1
# [33] = biological target: GlcNAc(b1-3)[GlcNAc(b1-4)][GlcNAc(b1-6)]GlcNAc
# Outline: as §1
# [34] = biological target: GlcNAc(b1-3)[GlcNAc(b1-6)]Gal(b1-4)GlcNAc
# Outline: as §1
# [35] = biological target: GlcNAc(b1-3)[GlcNAc(b1-6)]GalNAc
# Outline: as §1
# [36] = biological target: GlcNAc(b1-4)Gal(b1-4)GlcNAc
# Outline: as §1
# GlcNAc(b1-4)GlcNAc = biological target: GlcNAc(b1-4)GlcNAc
# Outline: as §1
# [37] = biological target: GlcNAc(b1-4)GlcNAc(b1-4)GlcNAc
# Outline: as §1
# [38] = biological target: GlcNAc(b1-4)GlcNAc(b1-4)GlcNAc(b1-4)GlcNAc(b1-4)GlcNAc
# Outline: as §1
# [39] = biological target: GlcNAc(b1-4)GlcNAc(b1-4)GlcNAc(b1-4)GlcNAc(b1-4)GlcNAc(b1-4)GlcNAc
# Outline: as §1
binder,measurement,setting,value
B1,glycan array binding signal (z-score),[1],-0.146
same,glycan array binding signal (z-score),[2],-0.145
same,glycan array binding signal (z-score),[3],-0.143
same,glycan array binding signal (z-score),[4],-0.138
same,glycan array binding signal (z-score),[5],-0.145
same,glycan array binding signal (z-score),[6],-0.145
same,glycan array binding signal (z-score),[7],-0.146
same,glycan array binding signal (z-score),[8],-0.144
same,glycan array binding signal (z-score),[9],-0.141
same,glycan array binding signal (z-score),[10],-0.14
same,glycan array binding signal (z-score),[11],-0.149
same,glycan array binding signal (z-score),GlcNAc(b1-3)Fuc,-0.148
same,glycan array binding signal (z-score),GlcNAc(b1-3)Gal,-0.148
same,glycan array binding signal (z-score),[12],-0.142
same,glycan array binding signal (z-score),GlcNAc(b1-3)Gal(b1-4)Glc,-0.146
same,glycan array binding signal (z-score),[13],-0.146
same,glycan array binding signal (z-score),[14],-0.142
same,glycan array binding signal (z-score),[15],-0.142
same,glycan array binding signal (z-score),[16],-0.134
same,glycan array binding signal (z-score),[17],-0.146
same,glycan array binding signal (z-score),[18],-0.133
same,glycan array binding signal (z-score),[19],-0.137
same,glycan array binding signal (z-score),[20],-0.136
same,glycan array binding signal (z-score),[21],-0.134
same,glycan array binding signal (z-score),[22],-0.139
same,glycan array binding signal (z-score),[23],-0.142
same,glycan array binding signal (z-score),[24],-0.141
same,glycan array binding signal (z-score),[25],-0.13
same,glycan array binding signal (z-score),[26],-0.136
same,glycan array binding signal (z-score),[27],-0.147
same,glycan array binding signal (z-score),[28],-0.145
same,glycan array binding signal (z-score),[29],-0.138
same,glycan array binding signal (z-score),[30],4.57
same,glycan array binding signal (z-score),[31],-0.145
same,glycan array binding signal (z-score),[32],-0.143
same,glycan array binding signal (z-score),GlcNAc(b1-3)GalNAc,-0.143
same,glycan array binding signal (z-score),GlcNAc(b1-3)Man,-0.146
same,glycan array binding signal (z-score),[33],-0.145
same,glycan array binding signal (z-score),[34],-0.139
same,glycan array binding signal (z-score),[35],-0.143
same,glycan array binding signal (z-score),[36],-0.145
same,glycan array binding signal (z-score),GlcNAc(b1-4)GlcNAc,-0.137
same,glycan array binding signal (z-score),[37],-0.141
same,glycan array binding signal (z-score),[38],-0.141
same,glycan array binding signal (z-score),[39],-0.139
